# Source: PubChem BioAssay AID488969 (Vanderbilt High Throughput Screening Facility, 2010)
# The full ranking holds about 110,000 compounds; the median of “z-score” is about -0.1, and the highest 2% start at about 2. Some of the results follow. Active and inactive are the calls of the source.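 How the source made its calls: active means z-score in the third read window above 3 or below -3; inactive means the rest.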
# Target: Metabotropic glutamate receptor 8 (Rattus norvegicus) (UniProt P70579)
# Experiment: rat mGluR8 modulators via GIRK flux, primary screen, cell-based, thallium flux, HTS (AID 488969)
# Conditions: HEK293 rat mGluR8, GIRK (G protein-gated inwardly rectifying potassium channel) thallium flux, FluoZin2; at 10 µM; stronger effect = higher value; submaximal glutamate (EC20) added with thallium
# Chain of UniProt P70579 (P70579 whole entry, looked up): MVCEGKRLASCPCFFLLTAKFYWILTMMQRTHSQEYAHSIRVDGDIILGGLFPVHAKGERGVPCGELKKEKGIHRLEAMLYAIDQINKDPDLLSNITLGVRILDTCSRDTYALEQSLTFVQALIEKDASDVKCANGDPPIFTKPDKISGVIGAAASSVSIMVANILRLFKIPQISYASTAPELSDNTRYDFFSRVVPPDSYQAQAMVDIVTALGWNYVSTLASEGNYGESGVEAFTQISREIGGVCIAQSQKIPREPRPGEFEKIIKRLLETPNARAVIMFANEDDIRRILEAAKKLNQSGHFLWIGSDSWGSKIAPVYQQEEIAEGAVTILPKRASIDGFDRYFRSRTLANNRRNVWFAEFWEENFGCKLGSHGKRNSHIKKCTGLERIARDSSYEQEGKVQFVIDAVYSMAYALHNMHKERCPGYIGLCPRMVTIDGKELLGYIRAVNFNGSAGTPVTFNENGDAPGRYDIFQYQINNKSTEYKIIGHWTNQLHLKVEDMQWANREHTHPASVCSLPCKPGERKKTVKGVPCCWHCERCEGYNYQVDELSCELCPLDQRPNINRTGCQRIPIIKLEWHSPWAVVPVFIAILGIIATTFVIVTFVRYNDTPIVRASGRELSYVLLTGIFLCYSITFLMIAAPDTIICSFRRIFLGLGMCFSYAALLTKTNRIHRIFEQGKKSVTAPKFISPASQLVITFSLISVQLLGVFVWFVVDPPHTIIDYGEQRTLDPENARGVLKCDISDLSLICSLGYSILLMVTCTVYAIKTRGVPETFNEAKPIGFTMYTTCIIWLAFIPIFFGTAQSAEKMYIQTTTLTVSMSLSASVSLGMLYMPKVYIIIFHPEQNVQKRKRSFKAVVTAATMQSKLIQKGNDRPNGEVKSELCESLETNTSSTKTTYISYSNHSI
row,Structure (SMILES),z-score
1,CCOC(=O)c1sc(=S)n(-c2ccccc2Cl)c1SC,-0.296
2,Cc1c(C(=O)N2CCCCC2)sc(NC(=O)C2CC2)c1C#N,0.0411
3,CCOc1ccc(NC(=O)Cn2nnc(-c3ccccc3NC(=O)C3CC3)n2)cc1,-0.104
4,CC(C)N(CCc1ccncc1)C(=O)Nc1ccc(Cl)c(Cl)c1,-0.239
5,COc1ccc(C(=O)Nc2nncs2)cc1S(=O)(=O)N1CC(c2ccccc2)CC1=O (centres undefined),-0.158
6,CC(=O)CC(=O)Nc1ccc(Nc2ccccc2)cc1,-0.163
7,Cc1ccc(C(=O)NC(=S)/C=C2\N(C)c3ccccc3C2(C)C)cc1,2.66
8,COc1ccc(CNC(=O)NC2CCCCC2)cc1,-0.0515
9,Cc1ccc(NC=C(S(=O)(=O)c2ccccc2)S(=O)(=O)c2ccccc2)cc1,0.144
10,Cc1cc(N2CCCC2)c(C)cc1C=O,0.209
11,COc1ccc(S(=O)(=O)Nc2cc(C(=O)NCCC(C)C)ccc2N2CCOCC2)cc1,-0.204
12,COc1ccccc1NC(=O)/C(C#N)=C/c1cc([N+](=O)[O-])ccc1N1CCCC1,-0.225
13,COc1ccc(OC)c2[nH]c(=O)c(CCNC(=O)C3CCCCC3)cc12,-0.1
14,CC12CCC(C(=O)NCCN3CCCCC3)(CC1=O)C2(C)C (centres undefined),-0.0355
15,CC(C)Nc1nc(Oc2ccc(Cl)cc2)cc(C(F)(F)F)n1,0.0405
16,CCc1c(O)cc2n(c1=O)-c1ccc(Cl)cc1C2(C)C,-0.0574
17,O=C1CC(c2ccc3c(c2)OCO3)CN1 (centres undefined),-0.0955
18,Cc1nc2ccc(C(=O)c3ccccc3)cc2[nH]1,-0.261
19,CN1CCCCc2c1[nH]c1ccccc1c2=O,-0.219
20,COc1ccccc1C(=O)N1CCN(S(=O)(=O)c2ccccc2)CC1,-0.543
21,Cc1cnc(C(=O)Nc2nnc(C3CC3)s2)cn1,-0.105

row,Structure (SMILES),z-score
1,O=C(CSc1nnc(Nc2ccccc2)s1)Nc1cccnc1Cl,1.36
2,Cc1nn(C)c(C)c1S(=O)(=O)N(CC(=O)NCCCOC(C)C)c1ccc(C(C)C)cc1,-0.0899
3,CC(=O)c1c(N2CCCC2)[nH]c(-c2ccccc2)nc1=S,active: 14.8
4,COc1ccc(C(=O)n2nc(-c3ccc(OC)cc3)nc2N)cc1,-0.148
5,O=C(Nc1cc(N2CCOCC2)ncn1)NC1(C(F)(F)F)Oc2ccccc2O1,-0.355
6,COc1ccc(NC(=O)C(NC(=O)c2ccc(=O)[nH]c2)c2ccc(OC)cc2)cc1 (centres undefined),-0.021
7,CCOC(=O)C1=NN(c2ccccc2)C2(S1)SC(C(C)=O)=C(C)N2c1ccccc1 (centres undefined),-0.0461
8,COc1ccc2nc(/N=C\N(C)C)sc2c1,0.401
9,CCC(=O)N1CCc2cc(S(=O)(=O)NCCC(=O)N3CC=C(c4ccccc4)CC3)ccc21,0.571
10,O=C(c1cc2cc(Cl)ccc2oc1=O)N1CCOCC1,-0.215
11,CCCSc1nc(C)cc(=O)[nH]1,0.53
12,Fc1ccc(CSc2nnc(CN3CCOCC3)n2-c2ccccc2)c(Cl)c1,0.402
13,O=C(NCCC1=CCCCC1)NC1CCCCC1,0.424
14,COc1cccc(NC(=O)Cc2nnc(SCC(=O)NC(C)c3ccccc3)n2C)c1 (centres undefined),-0.192
15,COc1ccc(C(=O)NCCCN2CCCC2=O)cc1,-0.241
16,CC1CCN(C(=O)Cn2c(=O)n(CCc3ccccc3)c(=O)c3ccccc32)CC1,-0.669
17,CCC1(C)C(Nc2c(C)cccc2C)=NC(=S)N1c1ccc(NC(C)=O)cc1 (centres undefined),-0.38
18,CCN(CC)S(=O)(=O)c1ccc2c(c1)c(C(=O)O)cn2C,0.106
19,CCCn1c(C)cc(/C=C(\C#N)C(=O)OCC(=O)Nc2cccc(OC)c2)c1C,active: 3.42
20,O=c1c2ccccc2nnn1CSc1nnc(-c2cccc(S(=O)(=O)N3CCCCC3)c2)o1,-1.01
21,CCOC(=O)c1ccc(CNC(=O)CSc2nnnn2-c2ccc(Cl)cc2)o1,-1.07

row,Structure (SMILES),z-score
1,COc1cc(/C=C2/SC(=NCc3ccccc3)N(Cc3ccccc3)C2=O)ccc1O,-0.176
2,CCOc1ccccc1NC(=S)N1CCC(c2nc3ccccc3o2)CC1,-0.329
3,CCc1ccccc1NC(=O)NC1CC2CCC(C1)N2Cc1cccs1 (centres undefined),0.0467
4,CC(C)CNC1=C(C(=S)Nc2ccccc2)C(=O)CC(C)(C)C1,-0.182
5,CCCCCCSC1=C(C#N)C(c2ccccc2)CC(=O)N1 (centres undefined),-0.195
6,CC(NC(=O)/C(C#N)=C1\N=C(NC(=O)c2cccs2)c2ccccc21)c1ccccc1 (centres undefined),-0.208
7,COC(=O)C(C)Sc1nc(-c2ccc(OC)cc2)nc2c1c(=O)n(C)c(=O)n2C (centres undefined),-0.526
8,Cn1c(=O)[nH]c(=O)c2c1nc(Br)n2CCCc1ccccc1,-0.728
9,CCOC(=O)c1[nH]c2ccccc2c1NC(=O)CC,-0.0151
10,COc1ccc(CCN(C(=O)c2cccc(F)c2)C2CC(=O)N(c3ccccc3)C2=O)cc1 (centres undefined),-0.316
11,Cc1nn(CC(=O)Nc2ccncc2)c(C)c1[N+](=O)[O-],-0.163
12,CCOc1ccc(C(=O)Nc2nnc(C(C)C)s2)cc1OCC,-0.409
13,C/C(CC(O)(/C=N/O)c1ccccc1)=N\O (centres undefined),0.616
14,O=C(NCCCN1CCC(Cc2ccccc2)CC1)C1CC(=O)N(C2CCCCCC2)C1 (centres undefined),1.25
15,COC(=O)C1=C(C)N(CC2CCCO2)C(=O)/C1=C\c1ccc(O)cc1 (centres undefined),-0.287
16,Cc1ccc(-n2nc3c4c(cccc4c2=O)-c2ccccc2-3)cc1,-0.376
17,Cc1cc(S(=O)(=O)NC(C)C)ccc1OCC(=O)N1CCOCC1,0.0382
18,Cc1cccc(NC(=O)COC(=O)CNC(=O)C2CCCCC2)c1,-0.152
19,CCOC(=O)c1c(NC(=O)CN2C(=O)NC3(CCCCC3)C2=O)sc(C)c1-c1ccc(C)cc1,-0.457
20,Cc1c(-c2ccc(F)cc2)[n+](=O)c(-c2ccc(F)cc2)c(C)n1[O-],-0.375
21,CC(=O)c1ccc(C#CC(C)(C)O)s1,0.559

row,Structure (SMILES),z-score
1,O=C(Nc1ccc(N2CCCC2)c(Cl)c1)c1ccc(Br)o1,1.42
2,Nc1[nH]c(N=NC(=O)c2ccccc2)c2ccccc12,0.0552
3,CC(C)CNC(=O)c1ccccc1Oc1ccccc1,-0.334
4,CC(C)c1nnc(SCC(=O)NCCC2=CCCCC2)n1N,-0.0723
5,Cc1cc(C)c2c(=O)c3c(oc2c1)C(=O)N(CCO)C3c1cccc(O)c1 (centres undefined),-0.166
6,COc1ccc(C(=O)NCCC(C)C)cc1S(=O)(=O)N1CCOCC1,0.859
7,O=C(CN1CCN(c2ccc(O)cc2)CC1)Nc1cc(S(=O)(=O)N2CCOCC2)ccc1Cl,0.903
8,CC(=O)Nc1cc(C(=O)O)ccc1S(=O)(=O)c1ccc(Cl)cc1,0.886
9,CNc1nc(Sc2cccc(C(F)(F)F)c2)cc(C(F)(F)F)n1,0.018
10,CCOC(=O)c1cccc(NS(=O)(=O)c2c(C)[nH]c(=O)[nH]c2=O)c1,-0.0134
11,CCc1cc(=O)oc2cc(C)c(CN3CCCC(C)C3)c(O)c12 (centres undefined),-2.82
12,Cc1cccc(NC(=O)c2cc(N3C(=O)CCC3=O)ccc2Cl)n1,-0.0664
13,NC(=O)c1cccnc1Oc1cccc(Cl)c1,0.168
14,CS(=O)(=O)N1CCC(C(=O)Nc2ccc(Br)cc2F)CC1,0.0621
15,O=C(O)C1Cc2ccccc2CN1S(=O)(=O)c1ccc2ccccc2c1 (centres undefined),-0.221
16,Cc1cccc(C(=O)Oc2ccccc2/C=N/Nc2ccc([N+](=O)[O-])cc2)c1,-0.206
17,c1ccc(N2CCN(c3ncnc4scc(-c5cccs5)c34)CC2)cc1,0.34
18,O=C(c1ccccc1)c1ccccc1N/C=C/c1nnnn1-c1ccccc1,-0.0671
19,Cc1cc(NC(=O)CCC(=O)N(CC(=O)NCC2CCCO2)c2ccc3c(c2)OCCO3)no1 (centres undefined),-0.0148
20,CCNC(=O)NC(=O)C(C)Sc1nnc(COc2ccccc2Cl)o1 (centres undefined),-1.08
21,Cn1nc(C(F)(F)F)c(/C=N/OCc2c(Cl)cccc2Cl)c1Cl,0.0257
